# The other results are listed elsewhere or left out.
# B1: Surfactant Protein D (Human); Neck + Carbohydrate Recognition Domain (NCRD) (Homo sapiens) (protein)
# chain: MLLFLLSALVLLTQPLGYLEAEMKTYSHRTMPSACTLVMCSSVESGLPGRDRDGREGPRGEKGDPGLPGAAGQAGMPGQAGPVGPKGDNGSVGEPGPKGDTGPSGPPGPPGVPGPAGREGALGKQGNIGPQGKPGPKGEAGPKGEVGAPGMQGSAGARGLAGPKGERGVPGERGVPGNTGAAGSAGAMGPQGSPGARGPPGLKGDKGIPGDKGAKGESGLPDVASLRQQVEALQGQVQHLQAAFSQYKKVELFPNGQSVGEKIFKTAQFVKPFTEAQLLCTQAGGQLASPRSAAENAALQQLVVAKNEAAFLSMTDSKTEGKFTYPTGESLVYSNWAPGEPNDDGGSADCVEIFTNGKWNDRACGAKRLVVCEF
# Assays:
# Assay in all cases: glycan array binding signal (z-score within array); higher = stronger binding
# Conditions in all cases: glycan notation: IUPAC condensed, linker removed; mutation: E347A
# Fuc(a1-2)Gal = target: Fuc(a1-2)Gal
# How it was run: (§1)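 Arrays were curated from the Consortium for Functional Glycomics database, 3228 in total, and kept only where the protein sequence was available. Binding is expressed as a within-array Z-score. This score was averaged across arrays of the same protein sequence at different concentrations or buffers and across linkers, and negative values can be read as non-binding.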
# Fuc(a1-2)Gal(b1-3)GalNAc = target: Fuc(a1-2)Gal(b1-3)GalNAc
# How it was run: as §1
# [1] = target: Fuc(a1-2)Gal(b1-3)GalNAc(b1-3)Gal
# How it was run: as §1
# [2] = target: Fuc(a1-2)Gal(b1-3)GalNAc(b1-3)Gal(a1-4)Gal(b1-4)Glc
# How it was run: as §1
# [3] = target: Fuc(a1-2)Gal(b1-3)GalNAc(b1-4)[Neu5Ac(a2-3)]Gal(b1-4)Glc
# How it was run: as §1
# Fuc(a1-2)Gal(b1-3)GlcNAc = target: Fuc(a1-2)Gal(b1-3)GlcNAc
# How it was run: as §1
# [4] = target: Fuc(a1-2)Gal(b1-3)GlcNAc(b1-3)Gal(b1-4)Glc
# How it was run: as §1
# [5] = target: Fuc(a1-2)Gal(b1-3)[Fuc(a1-4)]GlcNAc
# How it was run: as §1
# Fuc(a1-2)Gal(b1-4)Glc = target: Fuc(a1-2)Gal(b1-4)Glc
# How it was run: as §1
# Fuc(a1-2)Gal(b1-4)Glc6S = target: Fuc(a1-2)Gal(b1-4)Glc6S
# How it was run: as §1
# Fuc(a1-2)Gal(b1-4)GlcNAc = target: Fuc(a1-2)Gal(b1-4)GlcNAc
# How it was run: as §1
# [6] = target: Fuc(a1-2)Gal(b1-4)GlcNAc(b1-3)Gal(b1-4)GlcNAc
# How it was run: as §1
# [7] = target: Fuc(a1-2)Gal(b1-4)GlcNAc(b1-3)Gal(b1-4)GlcNAc(b1-3)Gal(b1-4)GlcNAc
# How it was run: as §1
# [8] = target: Fuc(a1-2)Gal(b1-4)GlcNAc6S
# How it was run: as §1
# [9] = target: Fuc(a1-2)Gal(b1-4)[Fuc(a1-3)]GlcNAc
# How it was run: as §1
# [10] = target: Fuc(a1-2)Gal(b1-4)[Fuc(a1-3)]GlcNAc(b1-3)Gal(b1-4)[Fuc(a1-3)]GlcNAc
# How it was run: as §1
# [11] = target: Fuc(a1-2)Gal(b1-4)[Fuc(a1-3)]GlcNAc(b1-3)Gal(b1-4)[Fuc(a1-3)]GlcNAc(b1-3)Gal(b1-4)[Fuc(a1-3)]GlcNAc
# How it was run: as §1
# Fuc(a1-2)Gal6S(b1-4)Glc = target: Fuc(a1-2)Gal6S(b1-4)Glc
# How it was run: as §1
# [12] = target: Fuc(a1-2)Gal6S(b1-4)Glc6S
# How it was run: as §1
# [13] = target: Fuc(a1-2)Gal6S(b1-4)GlcNAc
# How it was run: as §1
# Fuc(a1-2)[Gal(a1-3)]Gal = target: Fuc(a1-2)[Gal(a1-3)]Gal
# How it was run: as §1
# [14] = target: Fuc(a1-2)[Gal(a1-3)]Gal(b1-3)GlcNAc
# How it was run: as §1
# [15] = target: Fuc(a1-2)[Gal(a1-3)]Gal(b1-4)Glc
# How it was run: as §1
# [16] = target: Fuc(a1-2)[Gal(a1-3)]Gal(b1-4)GlcNAc
# How it was run: as §1
# [17] = target: Fuc(a1-2)[Gal(a1-3)]Gal(b1-4)[Fuc(a1-3)]GlcNAc
# How it was run: as §1
# [18] = target: Fuc(a1-2)[Gal(a1-4)]Gal(b1-4)GlcNAc
# How it was run: as §1
# [19] = target: Fuc(a1-2)[GalNAc(a1-3)]Gal
# How it was run: as §1
# [20] = target: Fuc(a1-2)[GalNAc(a1-3)]Gal(b1-3)GlcNAc
# How it was run: as §1
# [21] = target: Fuc(a1-2)[GalNAc(a1-3)]Gal(b1-4)Glc
# How it was run: as §1
# [22] = target: Fuc(a1-2)[GalNAc(a1-3)]Gal(b1-4)GlcNAc
# How it was run: as §1
# [23] = target: Fuc(a1-2)[GalNAc(a1-3)]Gal(b1-4)[Fuc(a1-3)]GlcNAc
# How it was run: as §1
# [24] = target: Fuc(a1-2)[GalNAc(a1-4)]Gal(b1-4)GlcNAc
# How it was run: as §1
# [25] = target: Fuc(a1-2)[GalNAc(b1-3)]Gal
# How it was run: as §1
# Fuc(a1-3)GlcNAc = target: Fuc(a1-3)GlcNAc
# How it was run: as §1
# [26] = target: Fuc(a1-3)[Gal(b1-4)]Glc6S
# How it was run: as §1
# [27] = target: Fuc(a1-3)[Gal(b1-4)]GlcNAc
# How it was run: as §1
# [28] = target: Fuc(a1-3)[Gal(b1-4)]GlcNAc(b1-2)Man(a1-3)[Fuc(a1-3)[Gal(b1-4)]GlcNAc(b1-2)Man(a1-6)]Man(b1-4)GlcNAc(b1-4)GlcNAc
# How it was run: as §1
# [29] = target: Fuc(a1-3)[Gal(b1-4)]GlcNAc(b1-2)Man(a1-6)[Gal(b1-4)GlcNAc(b1-2)Man(a1-3)]Man(b1-4)GlcNAc(b1-4)GlcNAc
# How it was run: as §1
# [30] = target: Fuc(a1-3)[Gal(b1-4)]GlcNAc(b1-3)Gal(b1-3)[Fuc(a1-4)]GlcNAc
# How it was run: as §1
# [31] = target: Fuc(a1-3)[Gal(b1-4)]GlcNAc(b1-4)Gal(b1-4)[Fuc(a1-3)]GlcNAc
# How it was run: as §1
# [32] = target: Fuc(a1-3)[Gal(b1-4)]GlcNAc(b1-4)Gal(b1-4)[Fuc(a1-3)]GlcNAc(b1-4)Gal(b1-4)[Fuc(a1-3)]GlcNAc
# How it was run: as §1
# [33] = target: Fuc(a1-3)[Gal(b1-4)]GlcNAc6S
# How it was run: as §1
# [34] = target: Fuc(a1-3)[Gal3S(b1-4)]Glc6S
# How it was run: as §1
# [35] = target: Fuc(a1-3)[Gal3S(b1-4)]GlcNAc
# How it was run: as §1
# [36] = target: Fuc(a1-3)[Gal3S(b1-4)]GlcNAc6S
# How it was run: as §1
# [37] = target: Fuc(a1-3)[GalNAc(b1-4)]GlcNAc
# How it was run: as §1
# Fuc(a1-4)GlcNAc = target: Fuc(a1-4)GlcNAc
# How it was run: as §1
# Fuc(b1-3)GlcNAc = target: Fuc(b1-3)GlcNAc
# How it was run: as §1
# Gal(a1-2)Gal = target: Gal(a1-2)Gal
# How it was run: as §1
# Gal(a1-3)Gal = target: Gal(a1-3)Gal
# How it was run: as §1
# Gal(a1-3)Gal(b1-3)GlcNAc = target: Gal(a1-3)Gal(b1-3)GlcNAc
# How it was run: as §1
# Gal(a1-3)Gal(b1-4)Glc = target: Gal(a1-3)Gal(b1-4)Glc
# How it was run: as §1
# Gal(a1-3)Gal(b1-4)GlcNAc = target: Gal(a1-3)Gal(b1-4)GlcNAc
# How it was run: as §1
# [38] = target: Gal(a1-3)Gal(b1-4)[Fuc(a1-3)]GlcNAc
# How it was run: as §1
# Gal(a1-3)GalNAc = target: Gal(a1-3)GalNAc
# How it was run: as §1
# [39] = target: Gal(a1-3)[Gal(a1-4)]Gal(b1-4)GlcNAc
# How it was run: as §1
# Gal(a1-4)Gal(b1-4)Glc = target: Gal(a1-4)Gal(b1-4)Glc
# How it was run: as §1
# Gal(a1-4)Gal(b1-4)GlcNAc = target: Gal(a1-4)Gal(b1-4)GlcNAc
# How it was run: as §1
# Gal(a1-4)GlcNAc = target: Gal(a1-4)GlcNAc
# How it was run: as §1
# Gal(a1-6)Glc = target: Gal(a1-6)Glc
# How it was run: as §1
binder,measurement,setting,value
B1,glycan array binding signal (z-score),Fuc(a1-2)Gal,-0.186
same,glycan array binding signal (z-score),Fuc(a1-2)Gal(b1-3)GalNAc,-0.187
same,glycan array binding signal (z-score),[1],-0.306
same,glycan array binding signal (z-score),[2],-0.23
same,glycan array binding signal (z-score),[3],-0.102
same,glycan array binding signal (z-score),Fuc(a1-2)Gal(b1-3)GlcNAc,-0.427
same,glycan array binding signal (z-score),[4],-0.459
same,glycan array binding signal (z-score),[5],-0.222
same,glycan array binding signal (z-score),Fuc(a1-2)Gal(b1-4)Glc,-0.456
same,glycan array binding signal (z-score),Fuc(a1-2)Gal(b1-4)Glc6S,-0.298
same,glycan array binding signal (z-score),Fuc(a1-2)Gal(b1-4)GlcNAc,-0.224
same,glycan array binding signal (z-score),[6],-0.078
same,glycan array binding signal (z-score),[7],-0.055
same,glycan array binding signal (z-score),[8],0.153
same,glycan array binding signal (z-score),[9],-0.389
same,glycan array binding signal (z-score),[10],-0.185
same,glycan array binding signal (z-score),[11],-0.128
same,glycan array binding signal (z-score),Fuc(a1-2)Gal6S(b1-4)Glc,0.173
same,glycan array binding signal (z-score),[12],0.34
same,glycan array binding signal (z-score),[13],0.162
same,glycan array binding signal (z-score),Fuc(a1-2)[Gal(a1-3)]Gal,-0.261
same,glycan array binding signal (z-score),[14],-0.243
same,glycan array binding signal (z-score),[15],-0.168
same,glycan array binding signal (z-score),[16],-0.076
same,glycan array binding signal (z-score),[17],-0.107
same,glycan array binding signal (z-score),[18],-0.321
same,glycan array binding signal (z-score),[19],-0.056
same,glycan array binding signal (z-score),[20],-0.299
same,glycan array binding signal (z-score),[21],-0.269
same,glycan array binding signal (z-score),[22],-0.183
same,glycan array binding signal (z-score),[23],-0.282
same,glycan array binding signal (z-score),[24],-0.222
same,glycan array binding signal (z-score),[25],-0.115
same,glycan array binding signal (z-score),Fuc(a1-3)GlcNAc,-0.445
same,glycan array binding signal (z-score),[26],0.176
same,glycan array binding signal (z-score),[27],-0.091
same,glycan array binding signal (z-score),[28],-0.15
same,glycan array binding signal (z-score),[29],-0.383
same,glycan array binding signal (z-score),[30],-0.11
same,glycan array binding signal (z-score),[31],-0.116
same,glycan array binding signal (z-score),[32],-0.239
same,glycan array binding signal (z-score),[33],0.431
same,glycan array binding signal (z-score),[34],0.074
same,glycan array binding signal (z-score),[35],0.099
same,glycan array binding signal (z-score),[36],0.434
same,glycan array binding signal (z-score),[37],-0.435
same,glycan array binding signal (z-score),Fuc(a1-4)GlcNAc,-0.116
same,glycan array binding signal (z-score),Fuc(b1-3)GlcNAc,0.037
same,glycan array binding signal (z-score),Gal(a1-2)Gal,-0.336
same,glycan array binding signal (z-score),Gal(a1-3)Gal,-0.068
same,glycan array binding signal (z-score),Gal(a1-3)Gal(b1-3)GlcNAc,-0.281
same,glycan array binding signal (z-score),Gal(a1-3)Gal(b1-4)Glc,-0.198
same,glycan array binding signal (z-score),Gal(a1-3)Gal(b1-4)GlcNAc,-0.244
same,glycan array binding signal (z-score),[38],-0.47
same,glycan array binding signal (z-score),Gal(a1-3)GalNAc,-0.384
same,glycan array binding signal (z-score),[39],-0.429
same,glycan array binding signal (z-score),Gal(a1-4)Gal(b1-4)Glc,-0.265
same,glycan array binding signal (z-score),Gal(a1-4)Gal(b1-4)GlcNAc,-0.118
same,glycan array binding signal (z-score),Gal(a1-4)GlcNAc,-0.46
same,glycan array binding signal (z-score),Gal(a1-6)Glc,-0.408
